# According to the supplement of paper PMC9174493:
# This is one part of the list. Single values of this set are uncertain. Values with irradiation are relative to irradiated vehicle.
# How the values were obtained:
# [1] = system: A549-Dual; test: NF-kB reporter (SEAP) activity, viability-corrected, relative to vehicle (fold change vs vehicle); higher = more activation of STING-IRF / NF-kB immune response reporter
# [2] = system: A549-Dual; test: ISRE reporter (Lucia luciferase) activity, viability-corrected, relative to vehicle (fold change vs vehicle); higher = more activation of STING-IRF / NF-kB immune response reporter
# 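For NF-kB reporter (SEAP) activity, viability-corrected, relative to vehicle in this document: viability correction based on the alamar blue assay, with concentrations leaving 10% survival or less dropped.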
SMILES,"NF-kB reporter ([1]; 0.1 µM, irradiation: 8 Gy/4 fr)","NF-kB reporter ([1]; 0.1 µM, irradiation: none)","NF-kB reporter ([1]; 0.3 µM, irradiation: 8 Gy/4 fr)","NF-kB reporter ([1]; 0.3 µM, irradiation: none)","NF-kB reporter ([1]; 1 µM, irradiation: 8 Gy/4 fr)","NF-kB reporter ([1]; 1 µM, irradiation: none)","NF-kB reporter ([1]; 3 µM, irradiation: 8 Gy/4 fr)","NF-kB reporter ([1]; 3 µM, irradiation: none)","NF-kB reporter ([1]; 10 µM, irradiation: 8 Gy/4 fr)","NF-kB reporter ([1]; 10 µM, irradiation: none)","ISRE reporter ([2]; 0.1 µM, irradiation: 8 Gy/4 fr)","ISRE reporter ([2]; 0.1 µM, irradiation: none)","ISRE reporter ([2]; 0.3 µM, irradiation: 8 Gy/4 fr)","ISRE reporter ([2]; 0.3 µM, irradiation: none)","ISRE reporter ([2]; 1 µM, irradiation: 8 Gy/4 fr)","ISRE reporter ([2]; 1 µM, irradiation: none)","ISRE reporter ([2]; 3 µM, irradiation: 8 Gy/4 fr)","ISRE reporter ([2]; 3 µM, irradiation: none)","ISRE reporter ([2]; 10 µM, irradiation: 8 Gy/4 fr)","ISRE reporter ([2]; 10 µM, irradiation: none)"
CNNCc1ccc(C(=O)NC(C)C)cc1.Cl [Procarbazine HCl],1.17,1.06,1.02,1.34,1.01,1.63,1.02,1.43,0.885,1.01,1.12,1.31,0.973,1.12,0.948,1.39,1.02,1.08,0.984,0.923
Nc1nc(=S)c2[nH]cnc2[nH]1 [Thioguanine],0.841,1.07,0.877,1.01,0.74,0.919,0.732,0.716,0.707,0.711,0.961,1.02,0.964,0.986,0.736,0.868,0.523,0.743,0.51,0.937
Cc1nc(Nc2ncc(C(=O)Nc3c(C)cccc3Cl)s2)cc(N2CCN(CCO)CC2)n1.O [Dasatinib Monohydrate],0.903,0.91,0.84,0.993,0.803,0.956,0.685,1.11,0.714,0.908,0.603,0.403,0.199,0.447,0.223,0.438,0.18,0.355,0.179,0.402
CC1(C(=O)O)CCC2(C)CCC3(C)C(=CC(=O)C4C5(C)CCC(OC6OC(C(=O)O)C(O)C(O)C6OC6OC(C(=O)O)C(O)C(O)C6O)C(C)(C)C5CCC43C)C2C1.N (stereo not given) [Ammonium Glycyrrhizinate],0.735,1.05,0.785,0.985,1.07,0.977,1.17,1.06,0.812,0.833,0.814,1.03,0.703,0.843,0.772,0.886,0.96,1.07,0.734,0.702
Nc1ccccc1NC(=O)c1ccc(CNC(=O)OCc2cccnc2)cc1 [Entinostat (MS-275)],1.22,1.35,0.997,1.32,0.729,1.09,2.58,1.63,4.12,1.86,0.795,1.13,0.468,0.984,0.203,0.79,0.731,1,0.724,1.27
O.O.O=C([O-])CCNC(=O)c1ccc(N=Nc2ccc(O)c(C(=O)[O-])c2)cc1.[Na+].[Na+] [Balsalazide disodium],1.04,1.55,1.03,1.86,1.1,1.27,1.24,1.47,1.12,1.04,1.26,1.51,1.14,1.44,1.12,1.19,1.12,1.28,1.03,0.993
COc1cc2nccc(Oc3ccc(NC(=O)NC4CC4)c(Cl)c3)c2cc1C(N)=O.CS(=O)(=O)O [lenvatinib Mesylate],1.01,1.09,0.901,0.955,1.01,1.26,0.852,1.01,0.783,1.01,0.962,0.873,0.832,0.883,0.979,0.774,0.712,0.361,0.645,0.596
CC1OC(n2cc(F)c(=O)[nH]c2=O)C(O)C1O (stereo not given) [Doxifluridine],1.01,1.27,1.2,1.64,1.58,1.12,1.93,1.11,1.15,1.2,1.07,1.15,1.06,1.25,1.06,1.07,1.1,1.02,1.08,0.762
CC(=O)C1CCC2C3CC(C)C4=CC(=O)CCC4(C)C3C(O)CC12C (stereo not given) [Medrysone],0.782,0.884,0.793,0.836,0.875,0.755,0.826,0.811,0.609,1.05,0.162,0.336,0.194,0.4,0.0817,0.25,0.101,0.305,0.0556,0.236
C=C1c2cccc(O)c2C(=O)C2=C(O)C3(O)C(=O)C(C(N)=O)=C(O)C(N(C)C)C3C(O)C12.Cl (stereo not given) [Methacycline HCl],1.17,1.09,1.05,1.25,1.29,1.51,0.751,1.34,0.471,0.914,1.15,1.41,1.05,1.08,1.19,1.42,0.596,0.829,0.326,0.655
O=c1cc[nH]c(=O)[nH]1 [Uracil],1.32,1.25,1.03,1.28,0.98,1.73,1.11,1.21,1.18,1.09,1.25,1.41,1.27,1.3,1.12,1.29,1.31,1.07,1.08,1
O=C1CCCC2C3CCC[N+]4([O-])CCCC(CN12)C34 (stereo not given) [Oxymatrine],0.607,0.682,0.747,0.776,1.08,0.725,0.665,0.876,0.768,0.722,0.7,0.682,0.75,0.571,0.731,0.703,0.527,0.913,0.779,0.653
CCS(=O)(=O)O.COC(=O)c1ccc2c(c1)NC(=O)/C2=C(\Nc1ccc(N(C)C(=O)CN2CCN(C)CC2)cc1)c1ccccc1 [Nintedanib Ethanesulfonate Salt],1.13,1.17,0.979,1.05,1.2,1.52,1.38,1.48,1.57,1.47,1.05,1.12,1.08,1.11,1.23,1.35,1.35,1.1,1.26,2.14
COc1cc2nccc(Oc3ccc(NC(=O)C4(C(=O)Nc5ccc(F)cc5)CC4)cc3)c2cc1OC.O=C(O)CC(O)C(=O)O [Cabozantinib malate (XL184)],0.863,0.957,0.902,0.939,0.932,1.18,1.01,1.04,0.994,0.931,0.844,0.713,0.908,0.974,0.889,1.01,1.15,1.31,1.11,1.82
CC(N)c1ccc(C(=O)Nc2ccnc3[nH]ccc23)cc1.Cl.Cl (stereo not given),0.696,0.916,0.653,0.759,0.877,1.17,1.22,0.781,0.629,1.28,0.48,0.828,0.552,0.678,0.181,0.674,0.444,0.694,0.0865,0.465
O=C(CCCc1ccccc1)[O][Na] [Sodium Phenylbutyrate],1.01,1.14,1.01,0.944,0.917,1.44,0.965,1.23,1.05,1.01,1.15,1.36,1.23,1.06,1.23,1.19,1.29,0.982,1.28,1.07
O=C(Nc1cnn2ccc(N3CCCC3c3cc(F)ccc3F)nc12)N1CCC(O)C1.O=S(=O)(O)O (stereo not given) [Larotrectinib (LOXO-101) sulfate],1.08,1.07,0.856,1.45,1.04,1.58,0.913,1.49,0.885,1,1.12,1.12,0.878,0.999,1.06,1.08,0.965,0.9,1.08,0.854
Cn1cnc2c(F)c(Nc3ccc(Br)cc3F)c(C(=O)NOCCO)cc21,1.03,1.7,0.946,1.34,0.902,1.48,1.24,1.5,1.2,1.74,0.829,1.36,0.678,0.86,0.548,0.762,0.366,0.414,0.285,0.517
O=C(/C=C/c1ccc(O)c(O)c1)OC(Cc1ccc(O)c(O)c1)C(=O)O (stereo not given) [Rosmarinic acid],1.06,1.31,0.864,1.54,1.04,1.43,1.12,1.5,1.06,1.09,0.983,0.848,0.782,1.1,0.725,1.32,0.76,1.31,0.676,0.862
Nc1cccc2c1C(=O)N(C1CCC(=O)NC1=O)C2=O (stereo not given) [Pomalidomide],0.984,1.02,0.972,0.988,0.817,0.886,0.946,0.761,0.854,0.753,0.957,1.01,1.24,0.927,0.943,0.922,1,0.767,0.936,0.773
CC(C)C1CCC(C(=O)NC(Cc2ccccc2)C(=O)O)CC1 (stereo not given) [Nateglinide],1.08,1.75,1.21,1.41,1.21,1.03,1.83,1.09,1.02,1.58,1.04,1.28,1.07,1.21,1.15,0.961,0.928,1.03,0.945,0.892
CC(C(=O)O)c1ccc2c(c1)Cc1cccnc1O2 (stereo not given) [Pranoprofen],0.591,0.556,0.682,0.497,0.611,0.526,0.572,0.591,0.575,0.708,0.797,0.761,0.701,0.645,0.676,0.928,0.755,0.898,0.771,0.851
CC(C(=O)O)c1ccc(C(=O)c2cccs2)cc1 (stereo not given) [Suprofen],0.786,0.75,0.839,1,1,0.791,1.07,0.826,0.749,0.904,0.802,0.698,0.77,0.867,0.693,0.801,0.746,0.811,0.713,0.901
Cc1ccc(C(=O)Nc2ccc(CN3CCN(C)CC3)c(C(F)(F)F)c2)cc1C#Cc1cnc2cccnn12,0.977,1.19,0.966,1.1,0.892,1.09,0.709,1.16,0.835,1.3,0.795,0.9,0.835,0.806,0.57,0.636,0.168,0.287,0.105,0.271
